{
  "source": "paper PMC11811815",
  "about": "“ISG15‐Dependent Stabilisation of USP18 Is Necessary but Not Sufficient to Regulate Type I Interferon Signalling in Humans” (European Journal of Immunology, 2025)",
  "binders": {"B1": {"name": "recombinant human ISG15 wild-type (GG), N-terminal cysteine, C78S, BODIPY-labelled (natural protein)", "chain": "not shown", "modifications": "maleimide BODIPY fluorophore on the introduced N-terminal cysteine", "notes": "N-terminal cysteine introduced before the start methionine, for labelling; human ISG15 from the start methionine, ending with the C-terminal di-Gly motif (GG); Cys78 mutated to serine; The start methionine is kept in the construct; also called ISG15.GG; Wild-type ISG15 (GG); source: recombinantly expressed (pCoofy3) and purified as previously described [28]"}, "B2": {"name": "recombinant human ISG15 variant ΔGG, N-terminal cysteine, C78S, BODIPY-labelled (natural protein)", "chain": "not shown", "modifications": "maleimide BODIPY fluorophore on the introduced N-terminal cysteine", "notes": "N-terminal cysteine introduced before the start methionine, for labelling; human ISG15 from the start methionine, C-terminal di-Gly deleted; Cys78 mutated to serine; also called ISG15.ΔGG; source: recombinantly expressed (pCoofy3) and purified as previously described [28]"}},
  "molecular_target": "T1, GST-tagged human USP18 (49-372 aa) (human, UniProt Q9UMW8-1 49-372)",
  "T1 construct": "human USP18, residues 49-372; also called hUSP18; GST-USP18; source: High-Five cells, baculovirus, purified (glutathione resin, ion exchange, gel filtration); not shown: GST, N-terminal, kept",
  "T1 sequence (looked up)": "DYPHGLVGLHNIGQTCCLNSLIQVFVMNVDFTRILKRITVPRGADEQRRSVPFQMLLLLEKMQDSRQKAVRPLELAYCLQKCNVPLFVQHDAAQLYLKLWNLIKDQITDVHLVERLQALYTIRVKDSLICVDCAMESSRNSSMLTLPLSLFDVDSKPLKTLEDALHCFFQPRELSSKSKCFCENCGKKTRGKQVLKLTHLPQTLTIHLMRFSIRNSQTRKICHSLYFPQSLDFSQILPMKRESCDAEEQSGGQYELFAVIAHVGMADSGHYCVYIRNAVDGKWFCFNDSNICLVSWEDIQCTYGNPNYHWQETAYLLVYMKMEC",
  "assay": "fluorescence polarisation; BODIPY-labelled ISG15 at 100 nM final; GST-USP18 from 10 µM final in 1:3 serial dilutions; 30 min incubation; one site binding model; three independent reactions",
  "settings": "both partners purified",
  "data": [
    {"binder": "B1", "values": [
      {"measurement": "Kd", "value": 370, "unit": "nM"}
    ]},
    {"binder": "B2", "values": [
      {"measurement": "Kd", "value": 330, "unit": "nM"}
    ]}
  ]
}
